# Reference: PubChem BioAssay AID624296 (National Center for Advancing Translational Sciences (NCATS), 2012)
# Hit rate of the full screen: of about 350,000 compounds, about 9,900 (2.8%) were called active. This list was built around the results that the source calls inconclusive (neither active nor inactive); the mix of calls is not that of the screen. The call rests on the fitted dose curve; in most records, active means well fitted activation curve with a large enough effect; inconclusive means small, poorly fitted or top-dose-only effect; inactive means no such curve, though single readings can be large or run the other way. Potencies of inconclusive entries are left out as doubtful fits.
# Assay: A quantitative high throughput screen for small molecules that induce DNA re-replication in MCF 10a normal breast cells. Further: nearly all actives have a fitted effect of over 50% in size. On activity, positive = re-replication: % of control where 0% means no effect.
# Conditions: MCF 10A DNA re-replication, Hoechst nuclear intensity, 48 h; activity, positive = re-replication: at 46.1 µM (top of the series)
# Potency means the concentration at half of the fitted maximal effect; tags describe the fitted curve by direction and shape.
Compound,Potency,"activity, positive = re-replication"
NS(=O)(=O)c1ccc(N/N=C2/CCCCC2C2CCCCC2)c([N+](=O)[O-])c1 (stereo unspecified),active: 11.6 µM,
COc1cc2cc(CN(CCCN3CCOCC3)C(=O)Nc3ccc(F)cc3)c(=O)[nH]c2cc1OC,"inconclusive [activator, partial curve, poor fit]",
CN(C)c1cccc(N(C)C)c1CNC(=O)NC(=O)c1c(F)cccc1F,,inactive: 0.737%
Cc1ccc(OCC(=O)Nc2ccc(O)c(-c3nc4ccccc4o3)c2)cc1,active: 16.4 µM,
CCN1CCN(C(=O)/C=C/c2ccc(C(C)C)cc2)CC1,"inconclusive [activator, partial curve]",
COc1ccc(/C=C(/Sc2nnc(-c3ccc(Cl)cc3)o2)C(=O)O)cc1,"inconclusive [activator, single point]",
Cc1ccc(Nc2cc(C)nc3ncnn23)c(Cl)c1,,inactive: 1.09%
O=C(COc1ccccc1Cl)Nc1cnn(Cc2ccccc2)c1,"inconclusive [activator, full curve, poor fit]",
CCOC(=O)C1CCCN(C(=O)c2cccc(S(=O)(=O)N(C)c3c(C)n(C)n(-c4ccccc4)c3=O)c2)C1 (stereo unspecified),,inactive: -34.9%
COc1ccc(C(C)=O)cc1COC(=O)c1ccc(N)c([N+](=O)[O-])c1,"inconclusive [activator, single point]",
c1ccc2c(c1)ncn2CCCOc1ccc2c(c1)CCC2,"inconclusive [activator, single point]",
O=C(NC(=S)NC1CCCC1)c1ccccc1,,inactive: 7.88%
CCOC(=O)c1c(NC(=O)N/N=C/c2ccccc2OCC)sc(C(C)=O)c1C,"inconclusive [activator, single point]",
CCOC(=O)Cn1nc(NC(=O)c2cc(OC)cc(OC)c2)cc1C,active: 20.6 µM,
O=C(Nc1ccc(N2CCN(C(=O)c3ccc(Cl)cc3)CC2)cc1)c1ccc(Br)o1,"inconclusive [activator, single point]",
N#Cc1c(N)nc(Sc2ccc(Cl)cc2)c(C#N)c1-c1ccccc1Cl,"inconclusive [activator, partial curve, poor fit]",
CC1(C)c2cc(Cl)ccc2-n2c1cc(O)c(-c1ccccc1)c2=O,,inactive: -2.15%
Cc1cc(Br)ccc1NC(=O)CN1C(=O)C2CC=CCC2C1=O (stereo unspecified),,inactive: 3.83%

Compound,Potency,"activity, positive = re-replication"
Cc1cccc(N2CCN(S(=O)(=O)c3cn(C)cn3)CC2)c1C,,inactive: 1.82%
CC(NCc1ccc(N(C)C)cc1)C1CC2CCC1C2 (stereo unspecified),,inactive: 3.88%
C/C(=N\NC(=O)c1ccc(-c2ccccc2)cc1)c1cccc(N)c1,"inconclusive [activator, partial curve, poor fit]",
COc1ccc(NC(=O)C(=O)NCC2CCCN2S(=O)(=O)c2ccc(C)cc2)cc1 (stereo unspecified),"inconclusive [activator, partial curve, poor fit]",
CCn1ncc([C@@H]2C[C@H]3CN(Cc4cccc(Cl)c4)C(=O)[C@]34CCCN24)c1C,,inactive: 24.3%
Cc1ccc(N(CC(=O)NCc2ccc(F)cc2)C(=O)c2snc(C(N)=O)c2N)cc1C,"inconclusive [activator, single point]",
COc1cc(/C=C2\SC(=S)N(CCC(=O)Nc3ccccc3)C2=O)cc(OC)c1OC,active: 18.4 µM,
CC(=O)N(CCc1ccccc1C)Cc1cc2ccc(C)cc2[nH]c1=O,"inconclusive [activator, partial curve, poor fit]",
CC(=O)c1cccc(NC(=O)c2cc(-c3ccncc3)nc3ccccc23)c1,,inactive: 0.0165%
C=C(C)Cc1c(C)c(C#N)c2[nH]c3ccccc3n2c1=O,"inconclusive [activator, single point]",
COc1ccc(NC(=O)CCOc2ccccc2C)cc1S(=O)(=O)N1CCCCC1,,inactive: -12.4%
COc1ccccc1/C=N/NC(=O)CSc1cc(C)nc2ccccc12,active: 13 µM,
CC(=O)c1sc(N/N=C/c2ccc(C(C)C)cc2)nc1C,active: 13 µM,
COc1ccccc1/C=C1\SC(=S)N(CCC(=O)NCCc2ccc(O)cc2)C1=O,"inconclusive [activator, partial curve, poor fit]",
COc1ccc(NC(=O)CSc2nncs2)cc1S(=O)(=O)N1CCCCC1,,inactive: 4.17%
S=c1[nH]nc(-c2ccc(Cl)cc2)n1-c1ccc(Cl)cc1,,inactive: 8.55%
COCCN(C(=O)COC(=O)c1ccco1)c1c(N)n(Cc2ccccc2)c(=O)[nH]c1=O,,inactive: 1.08%
CC1CCCN(CCCCOc2cccc(Br)c2)C1 (stereo unspecified),,inactive: 27.8%
